Experimental data taken from PubChem BioAssay AID686979 (National Center for Advancing Translational Sciences (NCATS), 2013).
Hit rate of the full screen: of about 420,000 compounds, about 50,000 (12%) were called active. This list was built around the results that the source calls inconclusive (neither active nor inactive); the mix of calls is not that of the screen. Calls follow the shape of the dose curve; as a rule, active = well fitted inhibition curve with a large enough effect; inconclusive = small, poorly fitted or top-dose-only effect; inactive = flat fitted curve, though single readings scatter. No potency is given beside an inconclusive call; the fits are too rough.

Assay: qHTS for Inhibitors of human tyrosyl-DNA phosphodiesterase 1 (TDP1): qHTS in cells in presence of CPT; also: nearly all actives have a fitted effect of over 55% in size
Details: chicken DT40 Tdp1-/-;hTDP1 cells + 20 nM CPT, ATP luminescence, 48 h; activity change, negative = growth inhibition: at 46.2 µM (top of the series)
In short: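 Cell growth measured by CellTiter-Glo luminescence after a minimum 48 h, 37 C compound exposure with 20 nM CPT in Tdp1-knockout DT40 cells stably expressing hTDP1, seeded 400/well; qHTS titration format.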
% is scaled to controls: 0 for no effect and ±100 for the full control effect; potency is read from the fitted curve at half-maximal effect; tags tell the direction and shape of the fitted curve.

| SMILES | activity change, negative = growth inhibition | Potency |
| --- | --- | --- |
| S=C(NCC1CCCO1)Nc1cccc2ccccc12 (configuration not stated) | inactive: 0.533% |  |
| CC(=O)Nc1nc2cc([N+](=O)[O-])ccc2s1 | inconclusive: -33.5% [inhibitor] |  |
| CCOc1cc(/C=C2/C(=O)N(c3ccccc3)N=C2C)ccc1OC(=O)c1ccco1 |  | inconclusive [inhibitor, single point] |
| Cn1c(=O)oc2cc(S(=O)(=O)N3CCC(C(=O)N4CCN(c5cccc(Cl)c5)CC4)CC3)ccc21 |  | active: 4.11 µM |
| CCOC(=O)c1ccc(NC(=O)c2nc[nH]c2C(=O)N[C@@H](CC(C)C)C(=O)OCc2ccccc2)cc1 |  | inconclusive [inhibitor, partial curve, poor fit] |
| CCc1nn(CC(=O)NC2CCN(Cc3ccccc3)CC2)c(=O)c2cc3cc(F)ccc3n12 |  | inconclusive [inhibitor, single point] |
| COc1ccc(CC(=O)NCCc2sc(-c3cccc(F)c3)nc2C)cc1 | inactive: -27% |  |
| Cc1ccc(Cn2c(C)c(CNCc3ccc(OC(C)C)cc3)c(C(=O)O)c2C)cc1 |  | inconclusive [inhibitor, single point] |
| CCCCOc1ccc(C(=O)N(Cc2nc(-c3ccc(Cl)cc3)no2)C(C)C)cc1 |  | inconclusive [inhibitor, single point] |
| COCCNc1nc(-c2cc(C)c(C)cc2C)cs1 |  | inconclusive [inhibitor, single point] |
| N#CCc1nn(-c2ccccc2)c(N)c1C#N | inactive: 4.42% |  |
| Cc1ccc(Cc2nnc(SCC(=O)Nc3ccc(C)cc3C)[nH]c2=O)cc1 | inactive: -12% |  |
| O=C(O)Cn1nnnc1-c1ccc(F)cc1 | inactive: 0.702% |  |
| O=C(O)CN1C(=O)/C(=C\c2ccccc2OCc2ccc(F)cc2)SC1=S | inactive: 0.598% |  |
| CC(C)c1nc(SCC(=O)N2CCCC2)c2ccccc2n1 | inactive: -9.22% |  |
| CCOC(=O)C1=C(C)N(CCCC(=O)O)C(=O)NC1c1cccc(OC)c1 (configuration not stated) | inactive: -2.96% |  |
| CN1CCc2c(sc3c2C(=O)NC(c2ccc(OC(=O)c4ccc(Cl)cc4)cc2)N3)C1 (configuration not stated) |  | inconclusive [inhibitor, single point] |
| Cc1onc(-c2ccccc2)c1C(=O)Nc1ccc2c(C)cc(=O)oc2c1 | inactive: 7.11% |  |
| COc1cccc(/C=N/NC(=S)NC2CC3CC2C2C=CCC32)c1O (configuration not stated) |  | inconclusive [inhibitor, single point] |
| Cc1ccc(Cn2ccc(NC(=O)c3cc(C(C)C)on3)n2)cc1 |  | inconclusive [inhibitor, single point] |
| c1cc2ccc3ccc(CN4CCOCC4)c4ccc(c1)c2c34 |  | inconclusive [inhibitor, partial curve, poor fit] |
| COC(=O)CSc1nnc(-c2ccc(S(=O)(=O)NCc3ccccc3Cl)cc2)o1 |  | inconclusive [inhibitor, partial curve, poor fit] |
| CC1(C)CC(=O)C=C(C(=O)N2CCCC(C(=O)c3cccc(Cl)c3)C2)O1 (configuration not stated) |  | inconclusive [inhibitor, single point] |
| O=S(=O)(c1cccc(Cn2nnc(-c3ccccc3)n2)c1)N1CCOCC1 |  | active: 23.1 µM |

| SMILES | activity change, negative = growth inhibition | Potency |
| --- | --- | --- |
| O=C(N/N=C1/CCSC1)c1cccc([N+](=O)[O-])c1 | inactive: -13.9% |  |
| CCOC(=O)[C@]12CCC=C1N(Cc1ccc3c(c1)OCO3)C(=O)[C@H](CC(=O)N1CCC(c3ccccc3)CC1)C2 |  | inconclusive [inhibitor, single point] |
| O=C(CN1C(=O)COc2ccc(S(=O)(=O)N3CCCCC3)cc21)NCc1ccc(Cl)cc1 |  | inconclusive [inhibitor, single point] |
| CCN(CC(=O)N1CCc2ccccc2C1)S(=O)(=O)c1ccc2ccccc2c1 |  | inconclusive [inhibitor, partial curve] |
| COc1ccc(CCNC(=O)c2cnc3sc(N4CCCC4)nn3c2=O)cc1OC |  | inconclusive [inhibitor, single point] |
| O=C(N/N=C/c1c(O)ccc2ccccc12)c1ccc[n+](CCO)c1 |  | active: 29.1 µM |
| CSCCC(NS(=O)(=O)c1ccc2c(c1)oc(=O)n2C)C(=O)N1CCN(c2cccc(Cl)c2)CC1 (configuration not stated) |  | inconclusive [inhibitor, partial curve] |
| COCCCNC(=O)CC(NS(=O)(=O)c1ccc(F)cc1)c1ccc(OC)cc1 (configuration not stated) | inactive: 4.46% |  |
| COc1cccc(C#Cc2c(C=O)n(C)c3ccccc23)c1 |  | active: 16.4 µM |
| CC1(Cc2ccc(OC(F)(F)F)cc2)C(=O)Nc2c(Cl)ccc(Cl)c21 (configuration not stated) |  | inconclusive [inhibitor, single point] |
| O=c1[nH]ncc(N/N=C/c2ccccc2)c1Cl |  | inconclusive [inhibitor, single point] |
| COC(=O)c1cc(=O)n(Cc2ccc3c(c2)OCO3)c(=Nc2ccc(F)cc2)s1 |  | inconclusive [inhibitor, single point] |
| FC(F)(F)c1cccc(NC(=S)NC(c2ccccc2)c2ccccc2)c1 |  | active: 3.66 µM |
| Cc1ccc(N(NC(=O)C(C)(C)O)C(=O)c2ccccc2)cc1C | inactive: -9.93% |  |
| O=C(CCNS(=O)(=O)c1cccc2nonc12)Nc1ccc(Cl)cc1 | inactive: 6.66% |  |
| CC(C)Cc1nnc(NC(=O)CCC(=O)NCCc2ccccc2)s1 | inactive: -14.2% |  |
| CC1CCCCC12NC(=O)N(CC(=O)N1CCN(S(=O)(=O)/C=C/c3ccccc3)CC1)C2=O (configuration not stated) | inactive: -1.98% |  |
| COC(=O)c1c(NC(=O)CC2Nc3cc(C)c(C)cc3NC2=O)sc(C)c1C (configuration not stated) |  | active: 20.6 µM |
| CCOC(=O)c1cc(-c2ccc(F)cc2)n(CCC(=O)NCCc2ccc(C)cc2)c1C |  | inconclusive [inhibitor, single point] |
| CCOc1ccc(N=Cc2c(O)c3ccccc3oc2=O)cc1 | inactive: 4.53% |  |
| Cc1cc(NC(=O)c2cc3cccc([N+](=O)[O-])c3[nH]2)ccc1F |  | inconclusive [inhibitor, single point] |
| CCOC(=O)C(=NC(C)CC)NNc1ccc(Br)cc1 (configuration not stated) |  | inconclusive [inhibitor, single point] |
| COc1ccc(-c2csc(=Nc3c(C)n(C)n(-c4ccccc4)c3=O)n2C(C)(C)C)cc1 | inactive: -2.31% |  |
| Cc1cc(C)nc(NN2C(=O)/C(=C/c3ccc(O)cc3)SC2=S)n1 |  | inconclusive [inhibitor, single point] |

| SMILES | activity change, negative = growth inhibition | Potency |
| --- | --- | --- |
| C=CCn1c(NC(=O)c2ccco2)nc2ccccc21 |  | inconclusive [inhibitor, single point] |
| COC(=O)[C@]12CCCCC=C1N(Cc1ccc3c(c1)OCO3)C(=O)[C@H](CC(=O)NCCCN1CCCC1=O)C2 |  | inconclusive [inhibitor, partial curve, poor fit] |
| Cc1ccc(C2CC(c3cccc(Cl)c3)n3nc(N)nc3N2)cc1 (configuration not stated) |  | active: 14.6 µM |
| Clc1ccc(CNc2nnnn2-c2ccccc2)c(Cl)c1 |  | inconclusive [inhibitor, partial curve] |
| COc1ccc(OCCCC(=O)Nc2cccc([N+](=O)[O-])c2C)cc1 | inactive: -20.6% |  |
| COc1ccc(NC(=O)C2CCCN2S(=O)(=O)c2cccs2)c([N+](=O)[O-])c1 (configuration not stated) |  | active: 20.6 µM |
| CCCCN(C)CCN1C(=O)C2C(C(=O)Nc3ccc(Cl)cc3)C3C=CC2(O3)C1C(=O)NC1CCCCC1 (configuration not stated) | inactive: 9.13% |  |
| COC(=O)c1sc(-c2ccc(Cl)cc2)cc1NC(=O)c1ccccc1C(=O)O |  | inconclusive [inhibitor, single point] |
| Cc1ccc(S(=O)(=O)N2CCSCCSCCSCCSCC2)cc1 | inactive: -9.42% |  |
| c1ccc(COc2cccc(-c3cc4nc(NCCCn5ccnc5)ccn4n3)c2)cc1 |  | inconclusive [inhibitor, single point] |
| O=c1c2ccccc2oc2nc(-c3ccco3)n(Cc3ccccc3)c(=O)c12 |  | inconclusive [inhibitor, partial curve] |
| Fc1ccc(-c2noc3ncnc(NCC4CCN(Cc5ccc(Cl)cc5)CC4)c23)cc1 |  | inconclusive [inhibitor, single point] |
| CN(C)S(=O)(=O)Oc1ccc(C(=O)Nc2ccc([N+](=O)[O-])cc2)cc1 | inactive: -5.39% |  |
| Cc1ccccc1-n1c(SCC(=O)N/N=C/C=C/c2ccccc2[N+](=O)[O-])nc2ccccc2c1=O |  | inconclusive [inhibitor, single point] |
| COc1cc(NC(=S)N2CCN(c3ccccn3)CC2)cc(OC)c1 | inactive: -16.2% |  |
| Cc1ccccc1-c1noc(-c2ccccc2C(=O)NCC2CCCO2)n1 (configuration not stated) |  | inconclusive [inhibitor, single point] |
| CSc1ccc(-c2nc(CSCC(=O)N3CCOCC3)c(C)o2)cc1 |  | inconclusive [inhibitor, single point] |
| CCCCc1c(-c2ccccc2)ncn1CCc1ccccc1OC |  | inconclusive [inhibitor, single point] |
| Cn1c(Cc2cccs2)n[nH]c1=S | inactive: -28.4% |  |
| Cc1ccc(-n2c(Cc3cccn3C)nnc2SCC(=O)N2CCc3ccccc32)cc1 |  | inconclusive [inhibitor, single point] |
| Cn1cccc1Cc1nnc(SCC(=O)N2CCCc3ccccc32)n1-c1ccc(F)cc1 |  | inconclusive [inhibitor, single point] |
| COc1cc(-n2c(C)nc3cccnc32)c(Cl)cc1C(=O)O | inactive: -10.1% |  |
| COc1ccccc1C(=O)NCCc1c(C)[nH]c2c(C)ccc(F)c12 | inactive: -14.3% |  |
| C=CCn1c(-c2c[nH]c3ccccc23)n[nH]c1=S | inactive: -0.996% |  |
